These results are taken from ChEMBL document CHEMBL4888484, “Replenishing the malaria drug discovery pipeline: Screening and hit evaluation of the MMV Hit Generation Library 1 (HGL1) against asexual blood stage Plasmodium falciparum ,using a nano luciferase reporter read-out” (2022).

The % Inhibition is the change of the read-out against control, counted positive when it falls.

Screen size: about 150,000 compounds; about 540 (0.36%) showed an effect of 50% or more. The list shows a part of the results.

The subject of this test is Plasmodium falciparum. The experiment in a line: Primary screen in NF54 nanoGlo assay, in single point, at 2uM, 72h; a lower Z score goes with more inhibition. Format: functional, Erythrocyte. The following applies: timepoint 72 hour.
As to `CC1(C)c2[nH]c3ccccc3c2C[C@H]2C(=O)N(c3ccccc3C(=O)O)C(=O)N21`, the “% Inhibition” value is 5% and the Z score is recorded as -0.64.
In the same order, the values of `CCOCCCNC(=O)[C@H]1CCCN(c2nc3cccnc3s2)C1` are 4% and -0.34.
In the same order, the values of `CCOC(=O)N1CCC(NC(=O)c2ccnc(OCC3CC3)c2)CC1` are -11% and 2.02.
In the same order, the values of `CCCCOc1ccc(C(=O)c2c(C)c(C#N)c(=O)n(C[C@H]3CCCO3)c2O)cc1` are -12% and 1.67.
For the compound `CCOC(=O)c1ccc2[nH]cnc2c1NC(C)=O`, the “% Inhibition” value is given as 32% and the Z score is on record as -4.06.
In the same order, the values of `COc1cccc(C(=O)NCC2=CCCN(CC(N)=O)C2)c1` are -22% and 2.79.
In the same order, the values of `CC(=O)N[C@H]1C[C@H]2CN(C(=O)c3ncoc3-c3cccc(C)c3)CC(=O)N2C1` are -11% and 1.49.
In the same order, the values of `O=C(Nc1ccn(CCc2ccncc2)n1)[C@H]1CCCC12OCCO2` are 1% and -0.2.
With `O=C(NC1CCCCCCC1)[C@@H](c1ccccc1)n1cnnn1`, the “% Inhibition” value is listed as -13% and the Z score was 1.56.
In the same order, the values of `CCc1ccc(CN2CCc3c(C(=O)N(C)[C@@H](C)C(=O)NC)csc3C2)nc1` are 5% and -0.69.
Regarding `Cn1nc(C(=O)NC2CCCCC2)cc1C(=O)NC1CCCCC1`, the “% Inhibition” value was 32% and the Z score is on record as -1.32.
On to `CC(=O)Nc1ccccc1CC(=O)N1CCOC[C@@]1(C)C1CC1`, for which the “% Inhibition” value is -18% and the Z score came to 3.25.
Consider `Fc1ccc2c(c1)CC[C@@H]2NCc1ccc2c(c1)CCO2`, for which the “% Inhibition” value is reported as -6% and the Z score stood at 0.73.
In the same order, the values of `C[C@H](Nc1ccc(C(=O)N(C)C)nn1)c1cc(F)ccc1F` are -7% and 0.84.
In the same order, the values of `O=S(=O)(c1cc(Cl)ccc1Cl)N(C1CCCC1)C1CC1` are 3% and -0.4.
In the same order, the values of `CCC(C)CN1C(=O)C(Cc2ccccc2)NC12CCN(C(=O)c1ccccc1Cl)CC2` (stereo unspecified) are -6% and 0.91.
As for `O=C(Cn1cc(C(=O)c2ccncc2)c(=O)c2ccc(F)cc21)Nc1cccc(F)c1`, the “% Inhibition” value is -4% and the Z score came to 0.52.
In the same order, the values of `O=C(Nc1nc2c(s1)CCCC2)N1C2CCC1CC(Oc1ccccn1)C2` (stereo unspecified) are -3% and 0.36.
In the case of `Cc1nc(-c2nccn2CCNC(=O)c2cccnc2)co1`, the “% Inhibition” value was -2% and the Z score amounted to 0.31.
In the same order, the values of `COc1cc2c(cc1OC)[C@H](c1ccccc1Cl)N(C(=O)Cc1ccccc1)CC2` are 5% and -0.94.
Regarding `Cc1nsc(NC2CC2)c1C(=O)NCCN1CCCCC1`, the “% Inhibition” value amounted to 1% and the Z score was -0.2.
In the same order, the values of `COCC(NC(=O)c1cnn2ccc(N)cc12)C1CCCOC1` (stereo unspecified) are 11% and -1.99.
In the same order, the values of `CN1C[C@@H]2CC[C@H]1CN(C(=O)c1cccc(N3CCS(=O)(=O)CC3)c1)C2` are 11% and -1.52.
